# Assay results published in the supplement of paper PMC3334620.
# In all, about 33,000 sequences were measured (“E-score (-0.5 to 0.5)”: median about -0.035, highest 2% from about 0.34 on). This is one part of the list.
# Biological target: T1, Mot3 (UniProt P54785)
# T1 sequence: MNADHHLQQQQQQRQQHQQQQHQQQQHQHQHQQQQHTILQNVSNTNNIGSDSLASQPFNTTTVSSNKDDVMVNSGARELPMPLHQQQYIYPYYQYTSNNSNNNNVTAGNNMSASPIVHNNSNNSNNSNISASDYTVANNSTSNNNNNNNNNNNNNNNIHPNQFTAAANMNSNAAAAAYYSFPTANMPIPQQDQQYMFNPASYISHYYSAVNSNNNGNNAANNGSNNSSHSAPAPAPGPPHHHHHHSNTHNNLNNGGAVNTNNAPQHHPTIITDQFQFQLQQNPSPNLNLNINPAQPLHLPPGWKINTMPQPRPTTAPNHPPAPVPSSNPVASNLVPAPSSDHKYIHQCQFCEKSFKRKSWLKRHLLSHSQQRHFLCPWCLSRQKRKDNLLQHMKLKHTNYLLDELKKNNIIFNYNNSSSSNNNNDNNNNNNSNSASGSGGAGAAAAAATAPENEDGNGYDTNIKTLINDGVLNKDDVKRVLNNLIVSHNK
# Assay: PBM E-score (8-mer binding enrichment) (E-score (-0.5 to 0.5)); higher = stronger / more preferred TF binding; most listed sequences are background and not binding sites
# Conditions: protein concentration: 200 nM; construct: GST-full length
# In short: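 PURExpress in vitro transcription/translation supplied GST-tagged yeast transcription factors, either full-length or DNA-binding domain. Applied at about 100-200 nM to universal all-10-mer Agilent arrays double-stranded by primer extension, the bound protein was detected with fluorescent anti-GST. E-scores, modified Wilcoxon-Mann-Whitney statistics, were given by the Universal PBM Analysis Suite to ungapped eight-base words pooled with their reverse complements after masliner normalisation.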
row,Sequence,PBM E-score
1,ATACCGAC,-0.0192
2,ACTCGTAC,-0.063
3,GGCTAACA,0.151
4,GCTGAGTA,-0.066
5,ATTAATGG,0.103
6,ATATACCA,-0.0571
7,GTCAATCA,0.0897
8,AAATGTCT,-0.00895
9,AATGAGCC,-0.238
10,ATCTTCCC,-0.167
11,CCAAGATC,-0.275
12,AACCGATG,0.0735
13,GCCCGACA,-0.00853
14,CGCGTCCG,0.0176
15,ACGATGAC,-0.0119
16,GGAGTGCC,0.0916
17,AGAGAGGG,-0.182
18,CATGCAGC,-0.16
19,AGAAGCTC,-0.183
20,CATAAGAG,-0.0387
21,AACGGTGG,-0.099
22,ATGCCTCG,0.0595

row,Sequence,PBM E-score
1,ACCGGGCA,-0.256
2,AAAGCTGC,-0.2
3,CGCTCCAA,-0.209
4,GATGATTA,-0.0362
5,ACGTTTCC,0.11
6,CGTCCGCA,-0.186
7,TCGAGGAA,0.0247
8,CCCCGAGA,-0.176
9,GCCTACAA,0.199
10,AACACTTG,0.0527
11,CGGAGTTA,-0.0135
12,GTTCTAAA,0.0659
13,ACTGCACG,-0.0625
14,CGCTCGTC,-0.217
15,TCTCCTAA,0.0995
16,AAGCCTCA,-0.19
17,AACAGCGC,0.0828
18,GGTTCCAA,-0.208
19,ACAACTAG,-0.0235
20,GGGCTAGA,-0.251
21,AATGCTAT,0.0181
22,AAACCGTC,-0.0525

row,Sequence,PBM E-score
1,TACTTCGA,-0.00982
2,ACGTAAAC,0.251
3,AGGCATGA,0.153
4,TCGAAAAA,0.181
5,ACTCCTCC,-0.234
6,GACCCCGA,-0.118
7,GGGTGGAC,-0.236
8,CGATTTGA,0.0574
9,AGCTGCAA,-0.317
10,ACCGACTA,-0.213
11,ACTTTATC,0.172
12,GGGCCTCA,-0.178
13,GGAGCTTA,-0.0983
14,GAACTCCC,-0.0785
15,CAAATGCC,-0.0299
16,CCGAGCGA,-0.246
17,GGGATAAC,0.016
18,AATAGGCT,0.161
19,AAGACCCG,-0.143
20,CCTGTTGC,0.186
21,GTCGGCAA,-0.0195
22,GGGTCTCA,-0.282

row,Sequence,PBM E-score
1,CTAATTGC,0.127
2,CAGCGCCC,-0.184
3,CCTCCACA,-0.0595
4,CAAGTTGC,0.144
5,ATGTCTAA,0.142
6,AGTGATAC,0.0126
7,GAACAGGA,0.16
8,AGTACCTC,-0.107
9,GTTTAACA,0.316
10,GTGCCTTA,0.49
11,AAGTCACA,0.0863
12,CAGACGAC,-0.12
13,ACGTTAGA,0.0408
14,CAAACGCC,-0.143
15,CCCAACAG,-0.174
16,GTCACGAC,0.0302
17,ATAACCAC,-0.0418
18,ATTGGAGC,0.00824
19,AAATCAGT,-0.0253
20,GGAATGAC,-0.119
